In PubChem BioAssay AID1345083 (National Center for Advancing Translational Sciences (NCATS), 2018):
The whole screen tested about 94,000 compounds, of which about 6,200 (6.6%) were called active. The inconclusive results got no clear call from the source; some entries with a clear call stand among them for comparison. The call rests on the fitted dose curve; in most records, active means well fitted inhibition curve with a large enough effect; inconclusive means small, poorly fitted or top-dose-only effect; inactive means flat fitted curve, though single readings scatter. A potency beside an inconclusive call is a rough fit, not a confirmed value.

test: Cytotoxic Profiling in HEK 293 Cell Line of Diverse Libraries Using Quantitative High-Throughput Screening; details: HEK 293 viability, ATP luminescence (CellTiter-Glo), 48-72 h; activity change, negative = cytotoxicity: at 115 µM (top of the series) unless noted; series mostly up to 115 µM; further: nearly all actives have a fitted effect of over 60% in size
In short: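 qHTS cytotoxicity; HEK 293, 250 cells/well; compound pinned; 48 or 72 hr, 37 degree Celsius, 5% CO2, 95% humidity; CellTiter-Glo, 10 min RT; luminescence (ATP).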
On the % scale 0 is the no-effect control and ±100 the full control effect; potency means the concentration at half of the fitted maximal effect; tags describe the fitted curve by direction and shape.

Structure (SMILES)	Potency	activity change, negative = cytotoxicity
O=C(CC1CCCC1)N1CCCCCC1CN1CCOCC1 (stereo unspecified)	inconclusive: 79.4 µM [inhibitor, partial curve, poor fit]	
NCc1ccc(-c2ccc(F)cc2)cc1	active: 100 µM	
O=C(NCCN1CCOCC1)c1c[nH]c2ncccc12		inactive: -3.02% [at 172 µM]
CC(C)c1noc(-c2cn(C3CCN(C(=O)c4cc(Cl)ccc4F)C3)nn2)n1 (stereo unspecified)	inconclusive: 56.2 µM [inhibitor, partial curve, poor fit]	
CN(c1ccccc1)c1ccc2nnc(-c3cc(C(=O)N4CC(O)C4)ccn3)n2n1	inconclusive: 126 µM [inhibitor, single point]	
O=C1NC(=NC2CCCC2)C2(CCN(Cc3ccccc3)C2)N1c1cc(F)cc(F)c1 (stereo unspecified)	inconclusive: 89.1 µM [inhibitor, single point]	
Cn1cnc(S(=O)(=O)NCC2Cn3cccc3CN2Cc2ccccc2)c1 (stereo unspecified)	inconclusive: 50.1 µM [inhibitor, partial curve, poor fit]	
CC(=O)N1CCN(C(=O)c2nc3sccn3c2-c2ccc(C)cc2)CC1		inactive: -5.14%
Cc1ccc2c(c1)N1C(=O)OC[C@@H]1CCN(C)C2		inactive: 3.5% [at 230 µM]
COCc1nncn1C1CCN(C(=O)c2ccc(F)c(F)c2)CC1		inactive: 6.73%
CCOc1ccc(NC(=O)c2cc(-c3ccccc3C(F)(F)F)nc3c2cnn3C)cc1	inconclusive: 31.6 µM [inhibitor, full curve, poor fit]	
O=C1CO[C@H]2CN(C3CCC3)C[C@H]2N1c1ccccc1	inconclusive: 100 µM [inhibitor, partial curve]	
CN1CCC2(C1)CN(Cc1ccccc1)c1ccc(C(=O)N3CCOCC3)cc12 (stereo unspecified)	inconclusive: 112 µM [inhibitor, partial curve, poor fit]	
CC(C)CNC(=O)c1ccc2oc(-c3ccncc3Cl)nc2c1	inconclusive: 5.01 µM [inhibitor, full curve, poor fit]	
COc1ccc(-c2cnc3[nH]cc(CC(=O)N4CCOCC4)c3c2)cn1	inconclusive: 89.1 µM [inhibitor, partial curve]	
CCc1cc(=O)n(CC(=O)Nc2cc(Cl)ccc2OC)c(N2CCOCC2)n1	inconclusive: 50.1 µM [inhibitor, partial curve, poor fit]	
CN(Cc1ccccc1)C(=O)[C@H]1C[C@@H](O)[C@H](O)[C@@H]2N=C(Nc3ccc(-n4cccn4)cc3)S[C@@H]21	inconclusive: 89.1 µM [inhibitor, single point]	
COCCN1CCCCC(CC(=O)Nc2cc(C)c(Cl)cc2OC)C1=O (stereo unspecified)	inconclusive: 89.1 µM [inhibitor, partial curve, poor fit]	
CN1c2cc(C(=O)Nc3cccc(Br)c3)ccc2C(=O)N2CCCCC21 (stereo unspecified)	active: 35.5 µM	
COc1ccccc1OCCNC(=O)C1CCc2ncc(-c3ccc(F)cc3)n2C1 (stereo unspecified)	inconclusive: 89.1 µM [inhibitor, single point]	
COc1ccc(-c2cnc(Nc3cccnc3)c3c2CCO3)cn1	active: 70.8 µM	
COc1ccc2[nH]c(C(=O)N[C@@H]3CN(S(C)(=O)=O)C[C@H]3CN(C)C)cc2c1		inactive: 3.78%

Structure (SMILES)	Potency	activity change, negative = cytotoxicity
C[C@@]12CO[C@H](c3ccccc3)C[C@@H]1C[C@@H](N1CCN(CC3CC3)CC1)C2	inconclusive: 39.8 µM [inhibitor, partial curve, poor fit]	
O=C(NC1CCN(c2cc(-c3ccc(Cl)cc3)[nH]n2)C1)c1ccc2[nH]ccc2c1 (stereo unspecified)	inconclusive: 50.1 µM [inhibitor, partial curve, poor fit]	
COc1cc(F)ccc1-c1cc(C(=O)NCCc2cnc[nH]2)c2c(c1)N(C)CCO2	inconclusive: 100 µM [inhibitor, partial curve]	
COc1cccc(C(CC(=O)NCc2ccc3c(c2)OCO3)c2c[nH]c3ccccc23)c1OC (stereo unspecified)	inconclusive: 50.1 µM [inhibitor, partial curve, poor fit]	
Cc1ccc(NC(=O)Cn2ccn3nc(-c4ccccc4)c(CO)c3c2=O)c(C)c1	active: 44.7 µM	
CCc1nc2c(c(-c3ccc(Cl)cc3)n1)CN(Cc1ccccc1)CC2	active: 17.8 µM	
O=C(CC1CCCCN(Cc2ccccc2)C1=O)N1CCc2ccccc2C1 (stereo unspecified)	active: 44.7 µM	
Cc1ccc2oc(C(=O)N(C)Cc3nc(-c4cccnc4)no3)c(C)c2c1	inconclusive: 79.4 µM [inhibitor, partial curve]	
C[S+](=O)([O-])N1CCC(Cn2ccc3c(N4CCOCC4)nc(-c4ccncc4)cc32)CC1	inconclusive: 44.7 µM [inhibitor, partial curve, poor fit]	
COc1cccc(-c2cccc(C(=O)N3CCCC3C(=O)N3CCCCC3)c2)c1 (stereo unspecified)	inconclusive: 89.1 µM [inhibitor, single point]	
COc1ccc(CC(=O)NC2CCCc3c2[nH]c2ccccc32)cc1 (stereo unspecified)	active: 35.5 µM	
CCS(=O)(=O)N1CCCCC(NC(=O)c2scc3c2OCCO3)C1 (stereo unspecified)	inconclusive: 56.2 µM [inhibitor, partial curve, poor fit]	
O=C1CC2(CCN(C(=O)c3ccccc3F)CC2)Oc2cc(Cl)ccc21	inconclusive: 50.1 µM [inhibitor, partial curve, poor fit]	
O=C(NCC1CN(C(=O)C2CCCCC2)CC12CCOCC2)N1CCCC1 (stereo unspecified)		inactive: -22.6%
CN(Cc1ccccc1)C(=O)C1CCCN1C(=O)c1cccc(-c2cccnc2)c1 (stereo unspecified)	inconclusive: 50.1 µM [inhibitor, partial curve, poor fit]	
CC(=O)NC1(C)CCN(Cc2cnc(-c3cccc(F)c3)s2)CC1	inconclusive: 50.1 µM [inhibitor, partial curve, poor fit]	
O=C(NCc1ccc(F)cc1)c1ccc2nnc(-c3cccc(C(F)(F)F)c3)n2c1	active: 39.8 µM	
COc1cc(N2CCC(CO)(Cc3ccccc3C(F)(F)F)CC2)ncn1	inconclusive: 39.8 µM [inhibitor, full curve, poor fit]	
COC(=O)C1=C(C)N=C2SC=C(CC(=O)NCC3CC3)N2C1c1cccc([N+](=O)[O-])c1 (stereo unspecified)		inactive: -2.45%
CC(C)(C)CN1CCOC[C@H]1c1ncc(-c2ccccc2)[nH]1	active: 79.4 µM	
CN1CCCCCCN(C(=O)c2nccc3ccccc23)[C@H]2CCC[C@H]2C1=O		inactive: -19.6%
Cc1nc(-c2ccccc2)n(Cc2ccccc2Cl)c(=O)c1CCO	inconclusive: 50.1 µM [inhibitor, partial curve, poor fit]	

Structure (SMILES)	Potency	activity change, negative = cytotoxicity
CCN1c2cc(C(=O)Nc3ccc(Oc4ccccc4)cc3)ccc2C(=O)N2CCCCC21 (stereo unspecified)	inconclusive: 28.2 µM [inhibitor, full curve]	
CCN1C(=O)CCc2cc(NC(=O)NC3CCCC3)ccc21	inconclusive: 89.1 µM [inhibitor, single point]	
O=C1NCc2ccccc2CC12CCN(Cc1ccc(-c3ccccc3)cc1)C2 (stereo unspecified)	active: 35.5 µM	
COc1cc2c(cc1-c1cccnc1)OCC(C)(C)CC2CO (stereo unspecified)	inconclusive: 56.2 µM [inhibitor, partial curve, poor fit]	
c1ccc2oc(N3CCN(Cc4ccc(-c5ccn[nH]5)o4)CC3)nc2c1	inconclusive: 56.2 µM [inhibitor, partial curve, poor fit]	
COc1ccc(-c2ccc(NC(=O)c3cccc(Cl)c3)cc2)nn1		inactive: -11.8%
CNC(=O)[C@@H]1CNC[C@H]1c1nc(C)no1	inconclusive: 89.1 µM [inhibitor, single point]	
COc1ccccc1-c1cc(C(=O)NCc2c(C)cc(C)[nH]c2=O)c2c(c1)N(C)CCO2	active: 89.1 µM	
Cc1noc([C@@H]2Cc3nc[nH]c3CN2C(=O)Nc2ccccc2)n1		inactive: -12.4% [at 172 µM]
CCCCC(=O)N1CCC2(CC1)SCC(=O)N2c1ccc(Cl)cc1		inactive: -27.6%
COc1ccc(C(=O)N2CCn3c(nn(-c4ccc(F)cc4F)c3=O)C2)cc1	inconclusive: 89.1 µM [inhibitor, single point]	
COc1ccccc1C(=O)N1CCCC(n2cc(-c3nc(-c4ccccc4)no3)nn2)C1 (stereo unspecified)	inconclusive: 31.6 µM [inhibitor, partial curve, poor fit]	
CN1CCOc2c(C(=O)NCc3cccnc3)cc(-c3ccccc3)cc21	inconclusive: 89.1 µM [inhibitor, partial curve]	
O=C(NC1CCN(c2cc(-c3ccc(F)cc3)[nH]n2)C1)c1cc(F)ccc1Cl (stereo unspecified)	inconclusive: 50.1 µM [inhibitor, partial curve, poor fit]	
Cc1cccc(N2CCN(C(=O)c3ccc4c(c3)N(C)C3CCCCN3C4=O)CC2)c1C (stereo unspecified)	inconclusive: 17.8 µM [inhibitor, full curve, poor fit]	
O=C(Cc1ccc(F)cc1)NC1CCN(c2ccnc3ccnn23)C1 (stereo unspecified)	inconclusive: 50.1 µM [inhibitor, partial curve, poor fit]	
O=C(c1ccc2nnc(-c3ccc(Cl)cc3)n2c1)N1CCOCC1		inactive: -2.2% [at 172 µM]
CC(C)S(=O)(=O)CCNc1nccc(-c2cccnc2)n1	inconclusive: 89.1 µM [inhibitor, single point]	
O=C(NCCOc1cccnc1)c1cn(Cc2cccc(C(F)(F)F)c2)nn1	active: 28.2 µM	
O=C(NC1CCN(Cc2ccc(-c3ccsc3)cc2)C1)c1ccccc1Cl (stereo unspecified)	active: 44.7 µM	
CCc1ccc(NC(=O)CN2C(=O)NC3(CCC(C)CC3)C2=O)cc1 (stereo unspecified)	inconclusive: 31.6 µM [inhibitor, full curve]	
COC1CN(c2cccc(F)c2)C12CCN(C(=O)CC1CCN(C(C)=O)CC1)CC2 (stereo unspecified)		inactive: -16.6%
